Paper PMC4336329 (PLoS ONE, 2015)
Hit rate of the full screen: of about 310,000 compounds, about 14,000 (4.5%) showed an effect of 50% or more. The effect is printed as a negative number. This is one part of the list.
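Note: peak tail current of the secondary pulse compared with the same well before compound.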

What follows are compounds tested against human ether-à-go-go-related gene (hERG) potassium channel (human, UniProt Q12809) (assay: primary screen, population patch clamp on CHO cells stably expressing hERG).
Chain of human ether-à-go-go-related gene (hERG) potassium channel (Q12809 whole entry, looked up): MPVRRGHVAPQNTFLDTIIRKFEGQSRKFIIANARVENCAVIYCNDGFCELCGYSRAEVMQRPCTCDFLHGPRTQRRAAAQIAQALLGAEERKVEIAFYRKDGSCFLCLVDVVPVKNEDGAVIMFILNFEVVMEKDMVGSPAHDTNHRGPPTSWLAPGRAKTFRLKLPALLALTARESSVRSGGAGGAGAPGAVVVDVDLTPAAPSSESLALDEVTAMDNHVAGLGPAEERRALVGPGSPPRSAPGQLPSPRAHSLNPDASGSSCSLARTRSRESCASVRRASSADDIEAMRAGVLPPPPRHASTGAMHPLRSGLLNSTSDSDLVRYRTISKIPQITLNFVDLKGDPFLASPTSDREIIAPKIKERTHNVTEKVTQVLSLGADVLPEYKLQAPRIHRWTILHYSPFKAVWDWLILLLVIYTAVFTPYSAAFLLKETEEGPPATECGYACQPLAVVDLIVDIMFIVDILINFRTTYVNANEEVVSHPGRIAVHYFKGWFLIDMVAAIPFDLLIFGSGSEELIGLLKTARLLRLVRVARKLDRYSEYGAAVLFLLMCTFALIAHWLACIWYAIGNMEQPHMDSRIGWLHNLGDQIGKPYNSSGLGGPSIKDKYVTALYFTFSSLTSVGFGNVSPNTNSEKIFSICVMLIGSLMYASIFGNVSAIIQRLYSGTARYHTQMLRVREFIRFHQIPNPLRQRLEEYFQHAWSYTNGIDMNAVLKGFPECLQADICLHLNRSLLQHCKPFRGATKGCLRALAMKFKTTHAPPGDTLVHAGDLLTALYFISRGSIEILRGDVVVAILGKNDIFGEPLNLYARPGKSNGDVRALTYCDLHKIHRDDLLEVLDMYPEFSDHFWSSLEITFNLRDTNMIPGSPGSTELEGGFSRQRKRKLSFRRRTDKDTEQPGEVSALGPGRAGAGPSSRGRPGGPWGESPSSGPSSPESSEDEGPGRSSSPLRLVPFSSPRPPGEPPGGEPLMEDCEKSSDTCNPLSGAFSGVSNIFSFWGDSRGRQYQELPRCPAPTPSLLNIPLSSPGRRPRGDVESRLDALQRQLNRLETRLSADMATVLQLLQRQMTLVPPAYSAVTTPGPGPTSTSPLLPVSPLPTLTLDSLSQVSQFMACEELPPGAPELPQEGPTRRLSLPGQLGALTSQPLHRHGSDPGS
In the case of `COc1ccc(-c2cc(C(=O)NN)[nH]n2)cc1`, the “hERG current change (%, negative = inhibition) at 10uM” value was 14.7%. With `N#C/C(=C(/O)CN1CCOCC1)c1nc(-c2ccccc2)cs1` the “hERG current change (%, negative = inhibition) at 10uM” value was 12.3%. `CCOc1ccc(-n2cc(C(=O)Nc3cccc(C)n3)c3cc(OC)c(OC)cc3c2=O)cc1` was tested, and the “hERG current change (%, negative = inhibition) at 10uM” value was 2.31%. With `CCCCCCOC1(c2ccccc2)OC(=O)c2ccccc21` (centres unmarked) the “hERG current change (%, negative = inhibition) at 10uM” value was 16.7%. With `O=C(NC(NNc1ccc([N+](=O)[O-])cc1)(C(F)(F)F)C(F)(F)F)c1ccccc1Cl` the “hERG current change (%, negative = inhibition) at 10uM” value was -8.05%. For `Cc1cc(C)c(OCC(=O)OCC(=O)NCc2cccs2)c(C)c1`, the “hERG current change (%, negative = inhibition) at 10uM” value was -2.5%. In the case of `Cc1cc(NC(=O)CSc2cn(CC(=O)N(C(C)C)C(C)C)c3ccccc23)no1`, the “hERG current change (%, negative = inhibition) at 10uM” value was 13.8%. For `O=C(O)CSc1nc2ccccc2o1`, the “hERG current change (%, negative = inhibition) at 10uM” value was 3.8%. With `Cc1cccnc1NC(=O)CSc1ccc2c(c1)OCCO2` the “hERG current change (%, negative = inhibition) at 10uM” value was 6.85%. In the case of `Br.O=S1(=O)C=CC(Sc2nc3ccccc3[nH]2)C1` (centres unmarked), the “hERG current change (%, negative = inhibition) at 10uM” value was 4.15%. `COc1ccc(C2C(C#N)=C(N)OC3=C2C(=O)CC(C)(C)C3)cc1Cn1cc([N+](=O)[O-])cn1` (centres unmarked) was tested, and the “hERG current change (%, negative = inhibition) at 10uM” value was -6.92%. In the case of `O=C(CSc1ccc(Br)cc1)N1CCN(S(=O)(=O)c2ccccc2)CC1`, the “hERG current change (%, negative = inhibition) at 10uM” value was -14.7%. With `COC(=O)c1cc(OC)nc2ccc(Br)cc12` the “hERG current change (%, negative = inhibition) at 10uM” value was -0.525%. `Cc1ccc(CNC(=O)CSc2nc3ccccc3c(=O)n2CCCO)cc1` was tested, and the “hERG current change (%, negative = inhibition) at 10uM” value was -73%. `CSc1nc(-c2ccccc2)nc(NC(=O)C(C)C)c1C(C)=O` was tested, and the “hERG current change (%, negative = inhibition) at 10uM” value was -1.89%. For `COc1ccc(S(=O)(=O)N2CCN(C)CC2)c2ccccc12`, the “hERG current change (%, negative = inhibition) at 10uM” value was 1.21%. `CC(C)(C)Sc1ccc(/C=N/O)cc1[N+](=O)[O-]` was tested, and the “hERG current change (%, negative = inhibition) at 10uM” value was -28.7%. `CC(=O)Nc1ccc(OCC(O)CN2CCN(c3ccc(Cl)cc3)CC2)cc1` (centres unmarked) was tested, and the “hERG current change (%, negative = inhibition) at 10uM” value was -52.7%. `O=C(NC1CCCC1)C(c1ccc(F)cc1)N(Cc1ccc(F)cc1)C(=O)CCl` (centres unmarked) was tested, and the “hERG current change (%, negative = inhibition) at 10uM” value was 0.467%. In the case of `CO[C@@]12[C@H](COC(N)=O)C3=C(C(=O)C(C)=C(N)C3=O)N1C[C@@H]1N[C@@H]12`, the “hERG current change (%, negative = inhibition) at 10uM” value was 2.61%. With `Cc1cccc(N2CCCn3c2nc2c3c(=O)n(CCN3CCOCC3)c(=O)n2C)c1` the “hERG current change (%, negative = inhibition) at 10uM” value was -1.99%. In the case of `CCCCn1c(=O)c(CCC(=O)OCC(=O)Nc2cc(Cl)ccc2OC)nc2ccccc21`, the “hERG current change (%, negative = inhibition) at 10uM” value was 6.11%. `COc1ccc(CNC(=O)COc2cc(=O)n(C)c3ccccc23)cc1` was tested, and the “hERG current change (%, negative = inhibition) at 10uM” value was -0.673%. `CCC(=O)Nc1sc(C(=O)N2CCCCC2)c(C)c1C#N` was tested, and the “hERG current change (%, negative = inhibition) at 10uM” value was 12%. In the case of `CN(Cc1ccccc1)c1nc2c(c(=O)[nH]c(=O)n2C)n1C`, the “hERG current change (%, negative = inhibition) at 10uM” value was -9.94%. For `COC(=O)c1ccc(NC(=O)CSC2=NC(=O)C(c3ccccc3)C(=O)N2)cc1` (centres unmarked), the “hERG current change (%, negative = inhibition) at 10uM” value was -4.43%. For `COc1ccc(N(CC(=O)NCCC2=CCCCC2)S(=O)(=O)c2ccc(C)cc2)cc1OC`, the “hERG current change (%, negative = inhibition) at 10uM” value was 22.5%. `N#CC1=C(N)Oc2n[nH]c(-c3ccccn3)c2C1c1c(F)cccc1Cl` (centres unmarked) was tested, and the “hERG current change (%, negative = inhibition) at 10uM” value was -3.23%. With `CC(=O)Oc1ccc2c(C)cc(=O)oc2c1` the “hERG current change (%, negative = inhibition) at 10uM” value was 7.11%. In the case of `O=C(COc1ccc(S(=O)(=O)NCc2ccccc2)cc1Cl)NCc1ccccn1`, the “hERG current change (%, negative = inhibition) at 10uM” value was 7.06%. `CC1(C)CC(=O)C=C(c2ccc3[nH]ccc3c2)C1` was tested, and the “hERG current change (%, negative = inhibition) at 10uM” value was 1.61%. With `Cc1ccccc1Nc1nnc(SCC(=O)N(C)C2CCS(=O)(=O)C2)s1` (centres unmarked) the “hERG current change (%, negative = inhibition) at 10uM” value was -9.28%. In the case of `NNC(=O)c1cccc(S(=O)(=O)Nc2cccc(C(F)(F)F)c2)c1`, the “hERG current change (%, negative = inhibition) at 10uM” value was 1.4%. `CCOP(=O)(OCC)C(NC(=O)Nc1cccc(Cl)c1)c1ccccc1` (centres unmarked) was tested, and the “hERG current change (%, negative = inhibition) at 10uM” value was 5.75%. For `Cc1cc(C)nc(SCC(=O)N(C)CC(=O)Nc2ccccc2Br)n1`, the “hERG current change (%, negative = inhibition) at 10uM” value was -22.3%. `CCOP(=S)(OCC)N1CCOCCOCCN(P(=S)(OCC)OCC)CCOCCOCC1` was tested, and the “hERG current change (%, negative = inhibition) at 10uM” value was -22.7%. `C=CCN1C(=O)C(CC(=O)O)S/C1=N/N=C/c1ccc(N(CC)CC)cc1` (centres unmarked) was tested, and the “hERG current change (%, negative = inhibition) at 10uM” value was -0.434%. In the case of `O=C(c1ccccc1)N1CCN(c2nc3ccc([N+](=O)[O-])cc3s2)CC1`, the “hERG current change (%, negative = inhibition) at 10uM” value was -55.4%. For `CN(C)c1ccc(C(C(=O)NC2CCCC2)N(C(=O)c2ccco2)C2CC2)cc1` (centres unmarked), the “hERG current change (%, negative = inhibition) at 10uM” value was 4.5%. In the case of `O=C(Cn1c2[n+](c3ccc(C(F)(F)F)cc31)CCCCC2)Nc1c(F)cccc1F.[Cl-]`, the “hERG current change (%, negative = inhibition) at 10uM” value was -16.7%. `CN(C)CCCNC(=O)c1ccc(-c2ccccc2)cc1` was tested, and the “hERG current change (%, negative = inhibition) at 10uM” value was -36.7%. With `O=C(c1cc2nc(-c3ccccc3)cc(-c3ccccc3)n2n1)N1CCCC1` the “hERG current change (%, negative = inhibition) at 10uM” value was 9.99%. With `O=C(Nc1cc([N+](=O)[O-])ccc1Cl)C1CC1` the “hERG current change (%, negative = inhibition) at 10uM” value was 14.1%. For `O=C(O)c1cc(O)c2c(c1)[C@H]([C@H]1c3cc(C(=O)O)cc(O)c3C(=O)c3c(O[C@@H]4O[C@H](CO)[C@@H](O)[C@H](O)[C@H]4O)cccc31)c1cccc(OC3O[C@H](CO)[C@@H](O)[C@H](O)[C@H]3O)c1C2=O` (some centres unmarked), the “hERG current change (%, negative = inhibition) at 10uM” value was 3.5%.
